First the molecules themselves.
B1: PhoQ; a variant is named by its letters at X, in order, P23837 (parent)
chain: MKKLLRLFFPLSLRVRFLLATAAVVLVLSLAYGMVALIGYSVSFDKTTFRLLRGESNLFYTLAKWENNKLHVELPENIDKQSPTMTLIYDENGQLLWAQRDVPWLMKMIQPDWLKSNGFHEIEADVNDTSLLLSGDHSIQQQLQEVREDDDDAEMTHSVAVNVYPATSRMPKLTIVVVDTIPVELKSSYMVWSWFIYVLSANLLLVIPLLWVAAWWSLRPIEALAKEVRELEEHNRELLNPATTRELTSLVRNLNRLLKSERERYDKYRTTLTDLTHSLKTPLXXLQXXLRSLRSEKMSVSDAEPVMLEQISRISQQIGYYLHRASMRGGTLLSRELHPVAPLLDNLTSALNKVYQRKGVNISLDISPEISFVGEQNDFVEVMGNVLDNACKYCLEFVEISARQTDEHLYIVVEDDGPGIPLSKREVIFDRGQRVDTLRPGQGVGLAVAREITEQYEGKIVAGESMLGGARMEVIFGRQHSAPKDE

This is one part of the list. A value given as a limit tells only on which side of the number the result lay.

The variants in the experiment derive from B1. Kind of experiment: enrichment ratio after two sorts for PhoP signalling (ratio (wild type AVST 3.29)); higher = more functional. The settings on record: with PhoP (E. coli).
Take ILYF: the enrichment ratio is no more than 0.25.

As to LELV, the enrichment ratio is 3.1. Regarding GPPQ, the enrichment ratio is no more than 0.25. The figure for QTKT is no more than 0.25. Take DFNS: the enrichment ratio is no more than 0.25. SWCT: the enrichment ratio is no more than 0.25. The figure for PGSH is no more than 0.25; for GYFR it is no more than 0.25; for VMNC it is no more than 0.25. The figure for SWFP is no more than 0.25; for YMRN it is no more than 0.25; for LMVL it is no more than 0.25. As to VWYG, the enrichment ratio is no more than 0.25. For VQKC, the enrichment ratio was no more than 0.25. The figure for YFIY is no more than 0.25.

As for PPCN, the enrichment ratio is no more than 0.25.

As for SFPP, the enrichment ratio was no more than 0.25.

QAVW: the enrichment ratio was no more than 0.25. In the case of WDAM, the enrichment ratio is no more than 0.25.

On to WESA, for which the enrichment ratio is no more than 0.25. The figure for TTRA is no more than 0.25; for WFGW it is no more than 0.25; for QRCG it is no more than 0.25. For KFSE, the enrichment ratio is no more than 0.25.

With VMWM, the enrichment ratio is no more than 0.25. The figure for WHKK is no more than 0.25; for NVAD it is no more than 0.25; for SVRT it is no more than 0.25. The figure for RLQY is no more than 0.25; for LSGV it is no more than 0.25. The figure for WWMS is no more than 0.25; for LAGT it is no more than 0.25; for AHNS it is no more than 0.25. Consider HVMM, for which the enrichment ratio is no more than 0.25.

Regarding HNLP, the enrichment ratio is no more than 0.25. As to DALP, the enrichment ratio was no more than 0.25. NHPG: the enrichment ratio was no more than 0.25. The figure for MSDC is no more than 0.25; for MAGY it is 3.31; for MLFI it is no more than 0.25. For QLAE, the enrichment ratio is no more than 0.25. The figure for YMCN is no more than 0.25. On to HFWL, for which the enrichment ratio is no more than 0.25. On to FLFC, for which the enrichment ratio was no more than 0.25.

On to GKII, for which the enrichment ratio is no more than 0.25.

As for VHWY, the enrichment ratio was no more than 0.25.

In the case of KNPK, the enrichment ratio is no more than 0.25. The figure for SELG is 25.3.

For the variant FDGC, the enrichment ratio is no more than 0.25. The figure for QANS is no more than 0.25; for NAWE it is no more than 0.25; for VTHQ it is no more than 0.25. The figure for LPFN is no more than 0.25; for NDFQ it is no more than 0.25. The figure for RRYV is no more than 0.25. For PMMP, the enrichment ratio is no more than 0.25. The figure for DEII is no more than 0.25. For VTFL, the enrichment ratio is no more than 0.25. The figure for PMSD is no more than 0.25; for MCTN it is no more than 0.25. The figure for DNPY is no more than 0.25; for FCDE it is no more than 0.25; for KFHY it is no more than 0.25.

On to TLGW, for which the enrichment ratio is no more than 0.25. The figure for IKDC is no more than 0.25.

Regarding WFVT, the enrichment ratio was no more than 0.25. The figure for LGVE is no more than 0.25; for TIGC it is 5.81. With DKVA, the enrichment ratio was no more than 0.25. The figure for RTCV is no more than 0.25; for LFMD it is no more than 0.25. The figure for FICA is no more than 0.25. The figure for FPQD is no more than 0.25; for HAYA it is no more than 0.25; for YCLS it is 1.42. As to EMLH, the enrichment ratio is no more than 0.25. Turning to PVTC, the enrichment ratio was no more than 0.25. MDMG: the enrichment ratio was no more than 0.25. The figure for REGR is no more than 0.25. As to SAPH, the enrichment ratio is no more than 0.25. For the variant RQFL, the enrichment ratio was no more than 0.25. The figure for TPVF is no more than 0.25. The figure for KFNL is no more than 0.25. As to REKV, the enrichment ratio was no more than 0.25. The figure for RPLL is no more than 0.25. For FPGN, the enrichment ratio was no more than 0.25. The figure for YLWR is no more than 0.25; for GARY it is no more than 0.25; for NIQP it is no more than 0.25.

With VDRN, the enrichment ratio was no more than 0.25. For the variant DVAY, the enrichment ratio was no more than 0.25. The figure for YGSC is no more than 0.25; for LQYF it is no more than 0.25; for APVD it is no more than 0.25. For the variant HPGT, the enrichment ratio was no more than 0.25. With VPYH, the enrichment ratio was no more than 0.25.

Take DRYL: the enrichment ratio is no more than 0.25. The figure for QKPC is no more than 0.25; for NKWQ it is no more than 0.25. The figure for FPSY is no more than 0.25. Turning to DTDS, the enrichment ratio was no more than 0.25. As for PPAG, the enrichment ratio is no more than 0.25. The figure for QPFI is no more than 0.25; for KIPL it is no more than 0.25. As for GEYR, the enrichment ratio was no more than 0.25. On to HMFE, for which the enrichment ratio is no more than 0.25. As for EYQP, the enrichment ratio is no more than 0.25. Turning to ELLY, the enrichment ratio is no more than 0.25. AHAS: the enrichment ratio was no more than 0.25. The figure for APQF is no more than 0.25; for ERPD it is no more than 0.25; for PFCF it is no more than 0.25. TVNF: the enrichment ratio turned out to be 2.59.

FVFI: the enrichment ratio was no more than 0.25. With MFCR, the enrichment ratio was no more than 0.25. The figure for QNGI is no more than 0.25; for PVAP it is no more than 0.25. Turning to MTIG, the enrichment ratio is no more than 0.25. The figure for KVRF is no more than 0.25; for EHMN it is no more than 0.25; for RIHW it is no more than 0.25. The figure for GRDH is no more than 0.25. The figure for EQII is no more than 0.25. As for WPND, the enrichment ratio is no more than 0.25. For the variant KSWR, the enrichment ratio is no more than 0.25. As to WDTF, the enrichment ratio is no more than 0.25. Regarding QGPC, the enrichment ratio was no more than 0.25.

As for TMMP, the enrichment ratio is no more than 0.25. The figure for HGKH is no more than 0.25; for FNKS it is no more than 0.25; for SPWM it is no more than 0.25. The figure for RGRQ is no more than 0.25; for NVSA it is no more than 0.25.

As for DIIQ, the enrichment ratio is no more than 0.25. As to LNKQ, the enrichment ratio is no more than 0.25. The figure for DNHP is no more than 0.25; for VTWN it is no more than 0.25.

As to VIIM, the enrichment ratio was no more than 0.25.

Take EPAL: the enrichment ratio is no more than 0.25. With SRRF, the enrichment ratio is no more than 0.25. The figure for ILVG is no more than 0.25; for KKLW it is no more than 0.25. Take HTHF: the enrichment ratio was no more than 0.25. Take TLGR: the enrichment ratio is no more than 0.25. The figure for RNYP is no more than 0.25; for VRRT it is no more than 0.25; for DSHM it is no more than 0.25. Regarding FTNV, the enrichment ratio is no more than 0.25. The figure for SWWC is no more than 0.25; for NNYD it is no more than 0.25; for QGKV it is no more than 0.25. In the case of IYVA, the enrichment ratio was no more than 0.25. Regarding NKAA, the enrichment ratio is no more than 0.25.

(Values after a collection of fitness landscapes (doi:10.1126/science.1257360).)
